{"source": "paper PMC4336329", "about": "(PLoS ONE, 2015)", "note": "Among all 310,000 compounds or so, about 2,200 (0.71%) showed an effect of 50% or more. Effects have a minus sign here. The list shows a part of the results."}
{"target": "human ether-à-go-go-related gene (hERG) potassium channel (human, UniProt Q12809)", "sequence (Q12809 whole entry, looked up)": "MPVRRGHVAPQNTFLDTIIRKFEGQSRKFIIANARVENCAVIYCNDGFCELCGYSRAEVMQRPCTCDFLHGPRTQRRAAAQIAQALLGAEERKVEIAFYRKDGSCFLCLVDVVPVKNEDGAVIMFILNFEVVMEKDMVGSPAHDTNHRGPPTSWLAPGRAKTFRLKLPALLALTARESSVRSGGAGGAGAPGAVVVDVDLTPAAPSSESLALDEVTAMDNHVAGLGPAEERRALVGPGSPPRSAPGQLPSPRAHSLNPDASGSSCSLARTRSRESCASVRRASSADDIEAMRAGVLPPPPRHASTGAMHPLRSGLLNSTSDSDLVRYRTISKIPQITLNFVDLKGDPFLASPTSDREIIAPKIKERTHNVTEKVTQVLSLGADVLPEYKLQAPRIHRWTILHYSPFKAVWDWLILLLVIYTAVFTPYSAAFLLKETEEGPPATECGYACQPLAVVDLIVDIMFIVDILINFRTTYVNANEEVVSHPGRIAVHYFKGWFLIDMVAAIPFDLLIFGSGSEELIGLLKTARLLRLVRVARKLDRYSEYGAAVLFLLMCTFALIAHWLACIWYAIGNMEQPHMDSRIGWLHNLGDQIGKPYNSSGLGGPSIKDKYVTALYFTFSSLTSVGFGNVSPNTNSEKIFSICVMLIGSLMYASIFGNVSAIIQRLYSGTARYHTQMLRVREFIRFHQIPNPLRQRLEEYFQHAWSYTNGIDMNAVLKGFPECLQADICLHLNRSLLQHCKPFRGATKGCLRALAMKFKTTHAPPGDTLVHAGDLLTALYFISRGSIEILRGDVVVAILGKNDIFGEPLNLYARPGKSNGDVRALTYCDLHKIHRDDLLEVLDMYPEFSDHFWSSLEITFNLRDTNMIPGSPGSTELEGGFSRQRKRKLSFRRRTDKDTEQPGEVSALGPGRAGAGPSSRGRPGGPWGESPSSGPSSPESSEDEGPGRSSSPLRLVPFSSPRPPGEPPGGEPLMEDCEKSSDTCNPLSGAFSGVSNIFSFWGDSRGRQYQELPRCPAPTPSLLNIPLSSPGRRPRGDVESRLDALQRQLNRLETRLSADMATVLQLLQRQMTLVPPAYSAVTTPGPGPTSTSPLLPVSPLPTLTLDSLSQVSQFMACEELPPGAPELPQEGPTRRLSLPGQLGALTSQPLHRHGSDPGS", "assay": "primary screen, population patch clamp on CHO cells stably expressing hERG", "units": {"hERG current change (%, negative = inhibition) at 1uM": "%"}}
{"smiles": "CCNC(=S)N(Cc1ccc2c(c1)OCO2)C1CC(=O)N(c2ccc(F)cc2)C1=O", "note": "(centres unmarked)", "hERG current change (%, negative = inhibition) at 1uM": -1.66}
{"smiles": "Cn1nnnc1SCC(=O)NCc1cccs1", "hERG current change (%, negative = inhibition) at 1uM": 15.1}
{"smiles": "COc1ccc(CNC(=O)c2cc(-c3ccco3)on2)cc1", "hERG current change (%, negative = inhibition) at 1uM": 1.92}
{"smiles": "O=C(CCl)NN=C(c1ccccc1)c1ccccc1", "hERG current change (%, negative = inhibition) at 1uM": 5.28}
{"smiles": "COc1ccc(C2=CC(=O)OC3(CCCCC3)O2)cc1", "hERG current change (%, negative = inhibition) at 1uM": -11.9}
{"smiles": "O=C(CC12CC3CC(CC(C3)C1)C2)NCc1ccncc1", "hERG current change (%, negative = inhibition) at 1uM": -4.22}
{"smiles": "N#CCSc1nc2ccccc2c(=O)n1C1CCCCC1", "hERG current change (%, negative = inhibition) at 1uM": 8.96}
{"smiles": "Cc1sc2nc(-c3cccnc3)[nH]c(=O)c2c1-c1ccccc1", "hERG current change (%, negative = inhibition) at 1uM": 0.0574}
{"smiles": "O=C(OCC(=O)c1ccc(Cl)s1)c1cnccn1", "hERG current change (%, negative = inhibition) at 1uM": 7.55}
{"smiles": "O=C(c1ccc(Cl)cc1)N1CCN(c2cc(=O)[nH]nc2-c2ccccc2)CC1", "hERG current change (%, negative = inhibition) at 1uM": -7.11}
{"smiles": "CCC(=O)Nc1ccc(C(=O)COC(=O)c2nc3nccc(C)n3n2)cc1", "hERG current change (%, negative = inhibition) at 1uM": -2.9}
{"smiles": "Cc1ccc2cc3cc(C(=O)N4CCCCC4C)oc3nc2c1", "note": "(centres unmarked)", "hERG current change (%, negative = inhibition) at 1uM": 7.78}
{"smiles": "O=C(CNC(=O)N1CC(=O)Nc2ccccc21)NCc1cccc(Cl)c1", "hERG current change (%, negative = inhibition) at 1uM": 12.2}
{"smiles": "Cn1c(=O)c2c(nc(NCc3ccco3)n2CCc2ccccc2)n(C)c1=O", "hERG current change (%, negative = inhibition) at 1uM": -11.3}
{"smiles": "O=C(NC1CCCCCC1)C(=S)NCc1ccccc1", "hERG current change (%, negative = inhibition) at 1uM": 10.4}
{"smiles": "CCOCCCNC(=S)N1CCCN(c2nc3cc(C)ccc3cc2C#N)CC1", "hERG current change (%, negative = inhibition) at 1uM": 5.25}
{"smiles": "CCc1cccc(CC)c1NC(=O)COC(=O)c1ccccc1-c1nc2ccccc2s1", "hERG current change (%, negative = inhibition) at 1uM": 20.4}
{"smiles": "COc1ccc(Cl)cc1C(=O)N1CCC2(CC1)CC(=O)c1ccccc1O2", "hERG current change (%, negative = inhibition) at 1uM": -71.7}
{"smiles": "Clc1ccc(-n2nnnc2-c2cnc(-c3ccccn3)nc2-c2cccs2)cc1", "hERG current change (%, negative = inhibition) at 1uM": 2.12}
{"smiles": "CCOC(=O)c1c(NC(=O)C(C)N2CCN(C(=O)c3ccco3)CC2)sc2c1CCCC2", "note": "(centres unmarked)", "hERG current change (%, negative = inhibition) at 1uM": -13.9}
{"smiles": "CSc1nc2c(c(=O)[nH]c(=O)n2C)n1CCCc1ccccc1", "hERG current change (%, negative = inhibition) at 1uM": 17.6}
{"smiles": "CSCc1c(C(=O)Nc2ccc3c(c2)OCO3)oc2ccccc12", "hERG current change (%, negative = inhibition) at 1uM": 14.9}
{"smiles": "Cc1cc(-c2ccccc2)nc(N/N=C/c2ccc([N+](=O)[O-])cc2)n1", "hERG current change (%, negative = inhibition) at 1uM": 7.63}
{"smiles": "O=C(Nc1ccc(F)c(Cl)c1)C1CC2CCC1C2", "note": "(centres unmarked)", "hERG current change (%, negative = inhibition) at 1uM": 12.3}
{"smiles": "Cc1cc(C)nc(SCC(=O)Nc2ccc(S(=O)(=O)NCCO)cc2)n1", "hERG current change (%, negative = inhibition) at 1uM": -1.09}
{"smiles": "O=C(Nc1ccc2c(c1)OCCO2)c1cccnc1", "hERG current change (%, negative = inhibition) at 1uM": 16.7}
{"smiles": "COc1ccc(-c2csc(NC3OC(=O)c4ccccc43)n2)cc1", "note": "(centres unmarked)", "hERG current change (%, negative = inhibition) at 1uM": 4.98}
{"smiles": "CCN1C(=O)[C@H]2[C@@H](c3ccc(C)cc3)N3C(=O)N(c4cccc(F)c4)C(=O)[C@@]3(CC)[C@H]2C1=O", "hERG current change (%, negative = inhibition) at 1uM": 7.18}
{"smiles": "O=C(COc1ccc(CO)cc1)Nc1ccc(F)cc1", "hERG current change (%, negative = inhibition) at 1uM": 9.48}
{"smiles": "COc1ccc(S(=O)(=O)N2CCOC2CNC(=O)C(=O)NCc2ccc3c(c2)OCO3)cc1", "note": "(centres unmarked)", "hERG current change (%, negative = inhibition) at 1uM": -3.99}
{"smiles": "C#Cc1ccc([C@H]2C=C(C(=O)OCC=C)O[C@@H](OCc3ccc(CO)cc3)C2)cc1", "hERG current change (%, negative = inhibition) at 1uM": 2.09}
{"smiles": "Cc1ccc(/C=C/C(=O)Nc2nnc(SCc3ccc(C#N)cc3)s2)o1", "hERG current change (%, negative = inhibition) at 1uM": -6.21}
{"smiles": "Cc1nn(CCCC(=O)NC2CCC(C)CC2)c(=O)c2nn(-c3ccccc3)c(C)c12", "note": "(centres unmarked)", "hERG current change (%, negative = inhibition) at 1uM": 7.87}
{"smiles": "CC(=O)Nc1sc(C)c(C)c1C(=O)OCC(=O)N(CC(C)C)c1c(N)n(Cc2ccccc2)c(=O)[nH]c1=O", "hERG current change (%, negative = inhibition) at 1uM": 6.48}
{"smiles": "O=C(O)c1ccccc1NCc1ccsc1", "hERG current change (%, negative = inhibition) at 1uM": 8.46}
{"smiles": "CC(NC(=O)C(Cc1ccccc1)NC(=O)c1ccccc1)C(=O)O", "note": "(centres unmarked)", "hERG current change (%, negative = inhibition) at 1uM": 21}
{"smiles": "CC(=O)Nc1ccc(S(=O)(=O)Nc2nc3cc4c(cc3nc2Cl)OCCO4)cc1", "hERG current change (%, negative = inhibition) at 1uM": 7.87}
{"smiles": "Cc1ccc([N+](=O)[O-])cc1N=C(c1cccc(Br)c1)N1CCOCC1", "hERG current change (%, negative = inhibition) at 1uM": 4.72}
{"smiles": "OCCC1CN(Cc2cccc(-n3cccn3)c2)CCN1Cc1ccccc1", "note": "(centres unmarked)", "hERG current change (%, negative = inhibition) at 1uM": -13.4}
{"smiles": "O=C(c1cccc(Cl)c1)C1CCCN(Cc2ccc(N3CCNC3=O)cc2)C1", "note": "(centres unmarked)", "hERG current change (%, negative = inhibition) at 1uM": -7.54}
{"smiles": "Cc1cc(/C=C2/NC(=O)N(Cc3ccccc3F)C2=O)c(C)n1-c1ccccn1", "hERG current change (%, negative = inhibition) at 1uM": 15}
{"smiles": "COc1ccccc1CC(=O)N1CCCC1", "hERG current change (%, negative = inhibition) at 1uM": 13.7}
{"smiles": "COc1ccc(NC(=S)NC(=O)c2cccnc2)cc1", "hERG current change (%, negative = inhibition) at 1uM": 11.5}
{"smiles": "CCCn1c(SCC(=O)Nc2sc(C)c(C)c2C(=O)OCC)nc2c1c(=O)n(C)c(=O)n2C", "hERG current change (%, negative = inhibition) at 1uM": -0.657}
{"smiles": "CCCc1nc2ccccc2n1CC(O)COc1ccc(NC(C)=O)cc1", "note": "(centres unmarked)", "hERG current change (%, negative = inhibition) at 1uM": 2.54}
{"smiles": "CCC(=O)Nc1ccc(-c2ccc(N3CCC(C)CC3)nn2)cc1", "hERG current change (%, negative = inhibition) at 1uM": 12.1}
{"smiles": "Cl.Cn1nnnc1SCCNCc1ccccc1OCc1ccc(Cl)cc1", "hERG current change (%, negative = inhibition) at 1uM": -31.8}
{"smiles": "O=C(CCCCC(=O)Nc1ccc(F)cc1F)Nc1ccc(F)cc1F", "hERG current change (%, negative = inhibition) at 1uM": 7.17}
{"smiles": "COCCn1c(=O)[nH]c2cc(C(=O)Nc3cccc(C(C)=O)c3)ccc2c1=O", "hERG current change (%, negative = inhibition) at 1uM": -17.4}
{"smiles": "CC(=O)OC(C(=O)NC1CCCCC1)c1ccccc1F", "note": "(centres unmarked)", "hERG current change (%, negative = inhibition) at 1uM": 13.8}
{"smiles": "CC1(c2ccccc2)NC(=O)N(CC(=O)NNC(=O)c2cccc(Cl)c2)C1=O", "note": "(centres unmarked)", "hERG current change (%, negative = inhibition) at 1uM": 0.487}
{"smiles": "O=C(NCCc1c[nH]c2ccccc12)c1cccc(Br)c1", "hERG current change (%, negative = inhibition) at 1uM": 8.79}
{"smiles": "COc1ccc(OC)c(NC(=O)c2ccc(OCC(=O)N3CCOCC3)c(OC)c2)c1", "hERG current change (%, negative = inhibition) at 1uM": 9.79}
{"smiles": "Cc1ccnc(-n2c(C)cc(/C=C3\\C(=O)NC(=S)N(C)C3=O)c2C)c1", "hERG current change (%, negative = inhibition) at 1uM": 9.12}
{"smiles": "CCN(CC)c1ccc(-c2nnc(SCC(=O)Nc3ccccc3C#N)n2-c2ccccc2)cc1", "hERG current change (%, negative = inhibition) at 1uM": 6.92}
{"smiles": "COc1ccc(S(=O)(=O)n2c([N+](=O)[O-])cnc2C)c(C)c1C", "hERG current change (%, negative = inhibition) at 1uM": 12.9}
